Data published in publication PMC8694192, “Synthesis and biological evaluation of new derivatives of thieno-thiazole and dihydrothiazolo-thiazole scaffolds integrated with a pyrazoline nucleus as anticancer and multi-targeting kinase inhibitors” (RSC Advances, 2021).

What was measured:
MCF-7 cells [1] = assay: DNA-flow cytometric cell cycle analysis (PI staining); assay type: cell-based, human; settings: MCF-7, 24 h, 4.021 μM for compound 1, 8.35 μM for 3c
Method: More details in the ESI. ^†
DMSO was utilized as a negative control. The stages of cell cycle were being detected via flow cytometry after propidium iodide (PI) staining followed by RNAse treatment.[63] In this experiment, MCF-7 cells were incubated with a concentration of 4.021 μM for compound 1 and with 8.35 μM for compound 3c for 24 h. The flow cytometry approach was used to quantify cell populations at various stages of the cell cycle (pre-G1, G1, S and G2/M phases).
screening of final compounds.
using 1 μM concentration of ATP.
1.2.4. Annexin V-FITC apoptosis assay
Briefly, cells were seeded

VEGFR-2 = VEGFR-2 (Homo sapiens, UniProt P35968); settings: relative to sorafenib
HepG-2 cells = assay: In vitro cytotoxicity, MTT assay, HepG-2; settings: relative to doxorubicin
MCF-7 cells [2] = assay: In vitro cytotoxicity, MTT assay, MCF-7; settings: relative to doxorubicin

Cc1c(NC2=NC(=O)CS2)c(=O)n(-c2ccccc2)n1C [Compound 1, 2-((1,5-Dimethyl-3-oxo-2-phenyl-2,3-dihydro-1H-pyrazol-4-yl)amino)thiazol-4(5H)-one]
percentage of cells at G1 (MCF-7 cells [1]): 52.38%
percentage of cells at G2/M (MCF-7 cells [1]): 23.51%
percentage of cells at pre-G1 (MCF-7 cells [1]): 26.37%
fold decrease in inhibitory activity against VEGFR-2 (VEGFR-2): about 2.4 folds

Cc1c(Nc2nc3c(C(=O)NN)c(N)sc3s2)c(=O)n(-c2ccccc2)n1C [Compound 3c, 5-Amino-2-((1,5-dimethyl-3-oxo-2-phenyl-2,3-dihydro-1H-pyrazol-4-yl)amino) thieno[3,2-d]thiazole-6-carbohydrazide]
fold decrease in activity against HepG-2 (HepG-2 cells): ~1.3 folds
fold decrease in inhibitory activity against VEGFR-2 (VEGFR-2): ~2.2 folds
fold decrease in activity against MCF-7 (MCF-7 cells [2]): about 1.8 folds
